One test relates to HSkMC. As to the kind of experiment: cytotoxicity call (relative viability < 0.9). To be noted: 10 µM.
The next test concerns HepG2. As to the kind of experiment: cytotoxicity call (relative viability < 0.9). The following applies: 10 µM.
The next test concerns S. aureus RN4220. As to the kind of experiment: growth inhibition call (relative growth <= 0.2). To be noted: 50 µM.

Each structure is given as a SMILES string. The list shows a part of the results.

Results on 28 compounds are retold here after the antibiotic and cytotoxicity screens of Wong et al. (2023).

Consider `O=C(C[C@H]1C[C@H]2c3cc(NS(=O)(=O)c4ccc(F)cc4)ccc3O[C@H]2[C@@H](CO)O1)NCc1cccnc1`, for which the cytotoxicity call in the test on HSkMC and in the test on HepG2 was “inactive” each time. Further, the growth inhibition call with S. aureus RN4220 is “inactive”.
For `O=C(C[C@H]1C[C@@H]2c3cc(NC(=O)Cc4ccncc4)ccc3O[C@@H]2[C@@H](CO)O1)NCc1ccc2c(c1)OCO2`, the cytotoxicity call in the test on HSkMC and in the test on HepG2 was “inactive” each time. Further, the growth inhibition call in the test with S. aureus RN4220 was “inactive”.
Consider `C[C@H](CO)N1C[C@H](C)[C@H](CN(C)C(=O)Nc2ccc(C(F)(F)F)cc2)Oc2ccc(NS(=O)(=O)c3ccc(F)cc3)cc2C1=O`, for which the cytotoxicity call in the test with HSkMC and in the test on HepG2 was “inactive” in each case. For the same compound, the growth inhibition call with S. aureus RN4220 is “inactive”.
As for `C[C@@H]1CCCCO[C@@H](CN(C)S(=O)(=O)c2cn(C)cn2)[C@@H](C)CN([C@@H](C)CO)C(=O)c2cc(NS(=O)(=O)c3cn(C)cn3)ccc2O1`, the cytotoxicity call in the test on HSkMC and in the test with HepG2 was “inactive” throughout. Besides, the growth inhibition call in the test on S. aureus RN4220 is “inactive”.
Consider `COc1ccc(S(=O)(=O)Nc2ccc3c(c2)C(=O)N([C@H](C)CO)C[C@@H](C)[C@@H](CN(C)Cc2ccncc2)O3)cc1`, for which the cytotoxicity call in the test with HSkMC and in the test on HepG2 was “inactive” each time. The growth inhibition call in the test on S. aureus RN4220 is “inactive”.
In the case of `CN(C)CC#Cc1ccc([C@@H]2[C@@H](CO)N3C(=O)CN(C(=O)c4cccnc4)C[C@H]23)cc1`, the cytotoxicity call in the test on HSkMC and in the test with HepG2 was “inactive” throughout. Also, the growth inhibition call with S. aureus RN4220 is “inactive”.
In the case of `CO[C@@H]1CN(C)C(=O)c2cc(NS(=O)(=O)c3cn(C)cn3)ccc2OC[C@H](C)N(Cc2cccc(F)c2)C[C@H]1C`, the cytotoxicity call in the test on HSkMC and with HepG2 was “inactive” throughout. In addition, the growth inhibition call with S. aureus RN4220 was “inactive”.
With `Nc1nc(-c2ccc(F)cc2)cs1`, the cytotoxicity call in the test with HSkMC and in the test with HepG2 was “inactive” throughout. Also, the growth inhibition call with S. aureus RN4220 is “inactive”.
As to `COc1ccc(NC(=O)N(C)C[C@H]2OCCCC[C@@H](C)Oc3ccc(NC(=O)Nc4ccc(C(F)(F)F)cc4)cc3C(=O)N([C@H](C)CO)C[C@@H]2C)cc1`, the cytotoxicity call in the test with HSkMC and in the test on HepG2 was “inactive” in each case. Moreover, the growth inhibition call in the test with S. aureus RN4220 was “inactive”.
Turning to `C[C@H]1[C@@H](c2ccccc2)OC(=O)CC[C@H](O)[C@@H](O)C[C@@H](CC(=O)NCc2ccc(Cl)cc2)C(=O)N1C`, the cytotoxicity call with HSkMC and with HepG2 was “inactive” each time. For the same compound, in the test with S. aureus RN4220, the growth inhibition call is “inactive”.
As for `CCCC(=O)Nc1ccc2c(c1)OC[C@@H](C)N(Cc1cc(-c3ccccc3)on1)C[C@@H](C)[C@H](OC)CN(C)C2=O`, the cytotoxicity call with HSkMC and with HepG2 was “inactive” each time. The growth inhibition call in the test on S. aureus RN4220 was “inactive”.
As to `O=C(OC[C@]12O[C@H]1[C@@H](O)[C@@H]1C=CO[C@@H](O[C@@H]3O[C@H](CO)[C@@H](O)[C@H](O)[C@H]3O)[C@@H]12)c1ccccc1`, the cytotoxicity call in the test with HSkMC and in the test on HepG2 was “inactive” throughout. Moreover, the growth inhibition call in the test on S. aureus RN4220 is “inactive”.
Take `NC[C@H]1CCN(c2ccc(Oc3ccccc3)cc2)C1`: the cytotoxicity call in the test with HSkMC was “inactive”. Further, in the test on HepG2, the cytotoxicity call is “active”. In addition, the growth inhibition call in the test with S. aureus RN4220 is “inactive”.
For `CNC[C@H]1OCCCC[C@H](C)Oc2ccc(NS(=O)(=O)c3c(C)noc3C)cc2C(=O)N([C@@H](C)CO)C[C@@H]1C`, the cytotoxicity call in the test on HSkMC and in the test with HepG2 was “inactive” in each case. For the same compound, the growth inhibition call in the test with S. aureus RN4220 is “inactive”.
On to `CC(=O)N[C@@H]1CC[C@@H](CCNC(=O)C2CC2)O[C@@H]1CO`, for which the cytotoxicity call in the test on HSkMC and with HepG2 was “inactive” in each case. In the test with S. aureus RN4220, the growth inhibition call is “inactive”.
As for `C[C@@H]1CCCCO[C@H](CN(C)S(=O)(=O)c2cn(C)cn2)[C@@H](C)CN([C@@H](C)CO)C(=O)c2cc(NS(=O)(=O)c3ccccc3)ccc2O1`, the cytotoxicity call in the test on HSkMC and in the test with HepG2 was “inactive” in each case. The growth inhibition call in the test on S. aureus RN4220 is “inactive”.
`COCC(=O)N(C)C[C@@H]1Oc2cc(-c3ccc(C#N)cc3)ccc2S(=O)(=O)N([C@H](C)CO)C[C@@H]1C`: the cytotoxicity call in the test with HSkMC and in the test with HepG2 was “inactive” each time. In the test with S. aureus RN4220, the growth inhibition call was “inactive”.
As for `C[C@H](CO)N1C[C@H](C)[C@H](CN(C)C(=O)Nc2ccc(F)cc2)OCCCC[C@H](C)Oc2ccc(NC(=O)c3ccncc3)cc2C1=O`, the cytotoxicity call in the test with HSkMC and with HepG2 was “inactive” in each case. For the same compound, in the test on S. aureus RN4220, the growth inhibition call was “inactive”.
As for `C[C@@H]1CN([C@@H](C)CO)C(=O)Cc2cc(NS(=O)(=O)c3cccs3)ccc2O[C@H]1CN(C)Cc1ccc(-c2ccccc2)cc1`, the cytotoxicity call with HSkMC and with HepG2 was “inactive” each time. In the test on S. aureus RN4220, the growth inhibition call was “inactive”.
On to `C[C@H](CO)N1C[C@H](C)[C@@H](CN(C)C(=O)Nc2ccc(C(F)(F)F)cc2)Oc2c(NS(=O)(=O)c3ccc(F)cc3)cccc2C1=O`, for which the cytotoxicity call in the test on HSkMC and in the test with HepG2 was “inactive” throughout. For the same compound, in the test on S. aureus RN4220, the growth inhibition call was “inactive”.
Take `CCOc1ccc(NC(C)=O)cc1`: the cytotoxicity call with HSkMC and with HepG2 was “inactive” each time. In addition, in the test with S. aureus RN4220, the growth inhibition call was “inactive”.
In the case of `O=C1CCCNc2ccc(Cl)cc21`, the cytotoxicity call in the test on HSkMC and with HepG2 was “inactive” in each case. Also, the growth inhibition call with S. aureus RN4220 was “inactive”.
In the case of `COc1ccc(S(=O)(=O)Nc2ccc3c(c2)CC(=O)N([C@@H](C)CO)C[C@@H](C)[C@@H](CN(C)S(=O)(=O)c2ccc(C)cc2)O3)cc1`, the cytotoxicity call in the test with HSkMC and in the test on HepG2 was “inactive” each time. For the same compound, in the test with S. aureus RN4220, the growth inhibition call is “inactive”.
Turning to `O=C1OCC=C[C@H]2O[C@@]34C=CCN(CCN5CCOCC5)C(=O)[C@H]3N(CCCCCCO)C(=O)[C@@H]4[C@@H]12`, the cytotoxicity call in the test with HSkMC and in the test with HepG2 was “inactive” throughout. Further, the growth inhibition call in the test on S. aureus RN4220 is “inactive”.
As for `Cc1ccc(S(=O)(=O)Nc2cccc3c2O[C@@H](CN(C)S(=O)(=O)c2ccccc2)[C@H](C)CN([C@@H](C)CO)C3=O)cc1`, the cytotoxicity call in the test with HSkMC and in the test with HepG2 was “inactive” in each case. In addition, in the test on S. aureus RN4220, the growth inhibition call is “inactive”.
With `CCS(=O)(=O)N1CCn2cc(Cn3cncn3)nc2C1`, the cytotoxicity call in the test with HSkMC and in the test with HepG2 was “inactive” each time. In addition, the growth inhibition call in the test on S. aureus RN4220 was “inactive”.
In the case of `Cc1noc(C)c1S(=O)(=O)Nc1cccc2c1O[C@@H](CN(C)S(=O)(=O)c1ccccc1)[C@@H](C)CN([C@@H](C)CO)C2=O`, the cytotoxicity call in the test on HSkMC (human skeletal muscle cells) and in the test on HepG2 was “inactive” in each case. In addition, the growth inhibition call in the test on S. aureus RN4220 was “inactive”.
Consider `CN[C@H]1CC[C@@H](c2ccc(Cl)c(Cl)c2)c2ccccc21`, for which the cytotoxicity call in the test with HSkMC was “inactive”. In addition, the cytotoxicity call with HepG2 is “active”. Moreover, in the test on S. aureus RN4220, the growth inhibition call is “inactive”.
